Assay results published in the RNAGym collection of RNA variant scans (doi:10.1093/nar/gkz1192).
The source gives no read counts; variants with many changes may rest on few reads.

B1: CPEB3 Ribozyme (parent)
chain: UAACAGGGGGCCACAGCAGAAGCGUUCACGUCGCAGCCCCUGUCAGAUUCUGGUGAAUCUGCGAAUUCUGCUGUAUAUCUC

Variants of: B1
Experiment: self-cleavage, relative activity (ratio to wild type); higher = more cleavage; in vitro, sequencing
How it was run: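 For each CPEB3 ribozyme variant, relative activity is its cleaved/total read fraction divided by the unmutated ribozyme's. Barcoded error-prone PCR libraries were transcribed by T7 RNA polymerase (5 hours, 37°C) and held in DNase I for 15 min before an EDTA stop, with cleavage occurring throughout. Template-switching reverse transcription and Illumina sequencing were used to read the RNAs. A 5-read minimum applied, and results are the mean of three batches.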

Variant	self-cleavage
UAACAGGGGGCCACAGCAGAAGCGUUCACGUCGCAGCCCCCGUCAGAUUCUGGUGAAUCUGCGAGUUCUGCUGUACAUCUC	0.65
UAACAGGGGGCCACAGCAGAAGCGUUCACGUCGCAGCCCCCGUCAGAUUCUGGUGAAUCUGCGAAUUCUGCUGUUUAUCAC	1.22
UAACAGGGGGCCACAGCAGAAGCGUUCACGUCGCAGCCCCCGUGAGAUUCUGGUGAGUCUGCGAAUUCUGCUGUAUAUCUC	0.27
UAACAGGGGGCCACAGCAGAAGCGUUCACGUCGCAGCCCCCGUUAGAUUCUGGUGAAUCUGCGAGUUCAGCUGUAUAUCUC	0.07
UAACAGGGGGCCACAGCAGAAGCGUUCACGUCGCAGCCCCCGUCAGAUUAUGGUGAAUCUGCGAACUCUGCUGUAUACCUC	0.15
UAACAGGGGGCCACAGCAGAAGCGUUCACGUCGCAGCCCCCGUCAGAUUCUGGUGAAUAUGCGAAUUCUGCAGUAUAUCUC	0.32
UAACAGGGGGCCACAGCAGAAGCGUUCACGUCGCAGCCCCCGUCAGAUUCUGGUGAAUUUGCGAAUUCUGCAGUAUAUCUC	0.62
UAACAGGGGGCCACAGCAGAAGCGUUCACGUCGCAGCCCCCGUCAGAUUCUGGUGAAUCUGAGAAUUCCGCUAUAUAUCUC	0.18
UAACAGGGGGCCACAGCAGAAGCGUUCACGUCGCAGCCCCCGUCAGAUUCUGGUGAAUCUGCGAAUUAUGCAGUAUAUCUC	0.35
UAACAGGGGGCCACAGCAGAAGCGUUCACGUCGCAGCCCCCGUCAGAUUCUGGUGAAUCUGCGAAUUAUGCUGUAAAUCUC	0.55
UAACAGGGGGCCACAGCAGAAGCGUUCACGUCGCAGCCCCCAUCAGAUUCUGGUGAAUCUGCGUAUUCUGCUGUAUAUCUC	0.27
UAACAGGGGGCCACAGCAGAAGCGUUCACGUCGCAGCCCCCAUCAGAUUCUGGUGAAUCUGCGAAAUCUGCGGUAUACCUC	0.06
UAACAGGGGGCCACAGCAGAAGCGUUCACGUCGCAGCCCCCCUCGGAUUCUGGUGAAUCUGCGAAUUCUGCCGUAUAUCCC	0.34
UAACAGGGGGCCACAGCAGAAGCGUUCACGUCGCAGCCCCCCUCAGAUUCUGGUGAAUCUGCGAAUUCCGCUGUAUGUCUC	0.1
UAACAGGGGGCCACAGCAGAAGCGUUCACGUCGCAGCCCCCUUCAGAUCCUGGUGAAUCUGCGAAUUCUGCUGUAUAUCUC	0.18
UAACAGGGGGCCACAGCAGAAGCGUUCACGUCGCAGCCCCCGUCAAAGUCUGGUGAAUCUGCGAAUUCCGCCGUAUAUCUC	0.18
UAACAGGGGGCCACAGCAGAAGCGUUCACGUCGCAGCCCCCGUCAAAUUCGGGUGAAUCUGCGAAUUCUGCCGUAUAUCUC	0.23

Variant	self-cleavage
UAACAGGGGGCCACAGCAGAAGCGUUCACGUCGCAGCCCCCGUCACAUUCUGGUGAAUCUGCGAAUCCUGCCGUAUAUCUC	0.07
UAACAGGGGGCCACAGCAGAAGCGUUCACGUCGCAGCCCCCGUCAUGUUCUGGUGAAUCUGCGAAUUCUGCUGUAUAUCUC	0.41
UAACAGGGGGCCACAGCAGAAGCGUUCACGUCGCAGCCCCCGUCAGAUUCUAGUGGAUCUGCGAAUUCUGCUGUAUGUCUC	1.08
UAACAGGGGGCCACAGCAGAAGCGUUCACGUCGCAGCCCCCGUCAGAUUCUAGUGAAUCUGCGAAUUCUGCAGUAUAUCUC	1.1
UAACAGGGGGCCACAGCAGAAGCGUUCACGUCGCAGCCCCCGUCAGAUUCUGCUGAAUCUGCGGAUUCUGCUGUAUAUCUC	0.71
UAACAGGGGGCCACAGCAGAAGCGUUCACGUCGCAGCCCCCGUCAGAUUCUGCUGAAUCUGCGAAUUCAGCUGUAUAUCUC	0.55
UAACAGGGGGCCACAGCAGAAGCGUUCACGUCGCAGCCCCCGUCAGAUUCUGGUAAAUAUGCGAAUUCUGCUGUAUAUCUC	0.19
UAACAGGGGGCCACAGCAGAAGCGUUCACGUCGCAGCCCCCGUCAGAUUCUGGUAAAUCUGCGAAUUCUGCCGUAUAUCUC	0.98
UAACAGGGGGCCACAGCAGAAGCGUUCACGUCGCAGCCCCCGUCAGAUUCUGGUUAAUCUGCGAAUCCUGCUGUAUAUCUC	0
UAACAGGGGGCCACAGCAGAAGCGUUCACGUCGCAGCCCCCGUCAGAUUCUGGUUAAUCUGCGAAUUCUGCUGUAUAACUC	0.69
UAACAGGGGGCCACAGCAGAAGCGUUCACGUCGCAGCCCCCGUCAGAUUCUGGUGAAUCUACGAAUUCUGCUGUAUGUCUC	0.43
UAACAGGGGGCCACAGCAGAAGCGUUCACGUCGCAGCCCCCGUCAGAUUCUGGUGAAUCUGCGAAUUCUGCUAUAUACCUC	1.28
UAACAGGGGGCCACAGCAGAAGCGUUCACGUCGCAGCCCCCGACAGAUUCUGGUGAGUCUGCGAAUUCUGCUGUAUAUCUC	1.17
UAACAGGGGGCCACAGCAGAAGCGUUCACGUCGCAGCCCCCGACAGAUUCUGGUGAAUCUGCGGAUUCUUCUGUAUAUCUC	0.12
UAACAGGGGGCCACAGCAGAAGCGUUCACGUCGCAGCCCCCGACAGAUUCUGGUGAAUCUGCGAAUUCUGUUGUAUAUCUC	0.58
UAACAGGGGGCCACAGCAGAAGCGUUCACGUCGCAGCCCCCGACAGAUUCUGGUUAAUCUGCGAAUUCUGCUGUAUAUCUC	0.58
UAACAGGGGGCCACAGCAGAAGCGUUCACGUCGCAGCCCCCGACAGAUUCUGGUGAAUCUACGAAUUCUGCUGUAUAUCCC	0.26
